# Data from the supplement of paper PMC8728848.
# Some of the results follow.
# B1: Ecp6 (Cladosporium fulvum), B3VBK9 (protein)
# chain: MQSMILFAAALMGAAVNGFVLPRTDDPDCETKATDCGSTSNIKYTVVKGDTLTSIAKKFKSGICNIVSVNKLANPNLIELGATLIIPENCSNPDNKSCVSTPAEPTETCVPGLPGSYTIVSGDTLTNISQDFNITLDSLIAANTQIENPDAIDVGQIITVPVCPSSQCEAVGTYNIVAGDLFVDLAATYHTTIGQIKALNNNVNPSKLKVGQQIILPQDCKNVTTAVA
# Assays:
# Assay in all cases: glycan array binding signal (z-score within array); higher = stronger binding
# Conditions in all cases: glycan notation: IUPAC condensed, linker removed
# [1] = target: Gal(b1-4)GlcNAc(b1-3)Gal(b1-4)[Fuc(a1-3)]GlcNAc(b1-3)Gal(b1-4)[Fuc(a1-3)]GlcNAc
# Method in brief: (§1)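 Glycan array binding is given as a within-array Z-score, which can be read as non-binding when negative. The arrays, 3228 of them, came from the Consortium for Functional Glycomics database and were retained only where the protein sequence was available. Z-scores were averaged across arrays of the same protein sequence at different concentrations or buffers and across linkers.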
# [2] = target: Gal(b1-4)GlcNAc(b1-3)GalNAc
# Method in brief: as §1
# [3] = target: Gal(b1-4)GlcNAc(b1-3)[Gal(b1-4)GlcNAc(b1-6)]Gal(b1-4)GlcNAc
# Method in brief: as §1
# [4] = target: Gal(b1-4)GlcNAc(b1-3)[Gal(b1-4)GlcNAc(b1-6)]GalNAc
# Method in brief: as §1
# [5] = target: Gal(b1-4)GlcNAc(b1-3)[GlcNAc(b1-6)]Gal(b1-4)GlcNAc
# Method in brief: as §1
# [6] = target: Gal(b1-4)GlcNAc(b1-6)Gal(b1-4)GlcNAc
# Method in brief: as §1
# [7] = target: Gal(b1-4)GlcNAc(b1-6)GalNAc
# Method in brief: as §1
# [8] = target: Gal(b1-4)GlcNAc(b1-6)[Gal(b1-3)]GalNAc
# Method in brief: as §1
# [9] = target: Gal3S(b1-3)GalNAc
# Method in brief: as §1
# [10] = target: Gal3S(b1-3)GlcNAc
# Method in brief: as §1
# [11] = target: Gal3S(b1-3)[Fuc(a1-4)]GlcNAc
# Method in brief: as §1
# [12] = target: Gal3S(b1-4)Glc
# Method in brief: as §1
# [13] = target: Gal3S(b1-4)Glc6S
# Method in brief: as §1
# [14] = target: Gal3S(b1-4)GlcNAc
# Method in brief: as §1
# [15] = target: Gal3S(b1-4)GlcNAc6S
# Method in brief: as §1
# [16] = target: Gal3S(b1-4)[Fuc(a1-3)]Glc
# Method in brief: as §1
# [17] = target: Gal3S(b1-4)[Fuc(a1-3)]Glc6S
# Method in brief: as §1
# [18] = target: Gal3S4S(b1-4)GlcNAc
# Method in brief: as §1
# [19] = target: Gal3S6S(b1-4)GlcNAc
# Method in brief: as §1
# [20] = target: Gal3S6S(b1-4)GlcNAc6S
# Method in brief: as §1
# [21] = target: Gal4S(b1-4)GlcNAc
# Method in brief: as §1
# [22] = target: Gal4S6S(b1-4)GlcNAc
# Method in brief: as §1
# [23] = target: Gal6S(b1-4)Glc
# Method in brief: as §1
# [24] = target: Gal6S(b1-4)Glc6S
# Method in brief: as §1
# [25] = target: Gal6S(b1-4)GlcNAc
# Method in brief: as §1
# [26] = target: Gal6S(b1-4)GlcNAc6S
# Method in brief: as §1
# [27] = target: GalNAc(a1-3)Gal
# Method in brief: as §1
# [28] = target: GalNAc(a1-3)GalNAc
# Method in brief: as §1
# [29] = target: GalNAc(a1-3)GalNAc(a1-3)Gal(a1-4)Gal(b1-4)GlcNAc
# Method in brief: as §1
# [30] = target: GalNAc(b1-3)Gal
# Method in brief: as §1
# [31] = target: GalNAc(b1-3)Gal(a1-4)Gal(b1-4)GlcNAc
# Method in brief: as §1
# [32] = target: GalNAc(b1-3)Gal(a1-4)Gal(b1-4)GlcNAc(b1-3)Gal(b1-4)Glc
# Method in brief: as §1
# [33] = target: GalNAc(b1-3)Gal(a1-6)Gal(b1-4)Glc
# Method in brief: as §1
# [34] = target: GalNAc(b1-3)GalNAc
# Method in brief: as §1
# [35] = target: GalNAc(b1-4)GlcNAc
# Method in brief: as §1
# [36] = target: GalNAc(b1-4)GlcNAc(b1-2)Man(a1-3)[GalNAc(b1-4)GlcNAc(b1-2)Man(a1-6)]Man(b1-4)GlcNAc(b1-4)GlcNAc
# Method in brief: as §1
# [37] = target: Glc(a1-4)Glc
# Method in brief: as §1
# [38] = target: Glc(a1-6)Glc(a1-6)Glc
# Method in brief: as §1
# [39] = target: Glc(b1-4)Glc
# Method in brief: as §1
# [40] = target: Glc(b1-6)Glc
# Method in brief: as §1
# [41] = target: GlcA(b1-3)Gal
# Method in brief: as §1
# [42] = target: GlcA(b1-3)GlcNAc
# Method in brief: as §1
# [43] = target: GlcA(b1-6)Gal
# Method in brief: as §1
# [44] = target: GlcNAc(a1-3)Gal(b1-4)GlcNAc
# Method in brief: as §1
# [45] = target: GlcNAc(a1-4)Gal(b1-3)GlcNAc
# Method in brief: as §1
binder,measurement,setting,value
B1,glycan array binding signal (z-score),[1],-0.036
same,glycan array binding signal (z-score),[2],-0.084
same,glycan array binding signal (z-score),[3],-0.106
same,glycan array binding signal (z-score),[4],-0.091
same,glycan array binding signal (z-score),[5],-0.096
same,glycan array binding signal (z-score),[6],-0.106
same,glycan array binding signal (z-score),[7],-0.094
same,glycan array binding signal (z-score),[8],-0.077
same,glycan array binding signal (z-score),[9],-0.091
same,glycan array binding signal (z-score),[10],-0.109
same,glycan array binding signal (z-score),[11],-0.074
same,glycan array binding signal (z-score),[12],-0.098
same,glycan array binding signal (z-score),[13],-0.08
same,glycan array binding signal (z-score),[14],-0.073
same,glycan array binding signal (z-score),[15],-0.093
same,glycan array binding signal (z-score),[16],-0.084
same,glycan array binding signal (z-score),[17],-0.084
same,glycan array binding signal (z-score),[18],-0.078
same,glycan array binding signal (z-score),[19],-0.083
same,glycan array binding signal (z-score),[20],-0.088
same,glycan array binding signal (z-score),[21],-0.101
same,glycan array binding signal (z-score),[22],-0.085
same,glycan array binding signal (z-score),[23],-0.073
same,glycan array binding signal (z-score),[24],-0.092
same,glycan array binding signal (z-score),[25],-0.098
same,glycan array binding signal (z-score),[26],-0.077
same,glycan array binding signal (z-score),[27],-0.096
same,glycan array binding signal (z-score),[28],-0.076
same,glycan array binding signal (z-score),[29],-0.091
same,glycan array binding signal (z-score),[30],-0.116
same,glycan array binding signal (z-score),[31],-0.1
same,glycan array binding signal (z-score),[32],-0.099
same,glycan array binding signal (z-score),[33],-0.106
same,glycan array binding signal (z-score),[34],-0.095
same,glycan array binding signal (z-score),[35],-0.082
same,glycan array binding signal (z-score),[36],-0.08
same,glycan array binding signal (z-score),[37],-0.101
same,glycan array binding signal (z-score),[38],-0.072
same,glycan array binding signal (z-score),[39],-0.1
same,glycan array binding signal (z-score),[40],-0.095
same,glycan array binding signal (z-score),[41],-0.089
same,glycan array binding signal (z-score),[42],-0.106
same,glycan array binding signal (z-score),[43],-0.078
same,glycan array binding signal (z-score),[44],-0.073
same,glycan array binding signal (z-score),[45],-0.101
